Out of some 73,000 compounds screened, about 2,500 (3.4%) were called active. The shares of active, inactive and inconclusive entries below differ from those in the screen. The call rests on the fitted dose curve; in most records, active means well fitted inhibition curve with a large enough effect; inconclusive means small, poorly fitted or top-dose-only effect; inactive means no such curve, though single readings can be large or run the other way. A potency beside an inconclusive call is a rough fit, not a confirmed value.
biological target: 3-hydroxyacyl-CoA dehydrogenase type-2 (Homo sapiens) (UniProt Q99714); test: qHTS Assay for Inhibitors of HADH2 (Hydroxyacyl-Coenzyme A Dehydrogenase, Type II); conditions: recombinant HADH2, NADH fluorescence, beta-hydroxybutyryl-CoA; activity change, negative = inhibition: at 57.1 µM (top of the series); further: nearly all actives have a fitted effect of over 60% in size
UniProt Q99714, sequence (Q99714 whole entry, looked up): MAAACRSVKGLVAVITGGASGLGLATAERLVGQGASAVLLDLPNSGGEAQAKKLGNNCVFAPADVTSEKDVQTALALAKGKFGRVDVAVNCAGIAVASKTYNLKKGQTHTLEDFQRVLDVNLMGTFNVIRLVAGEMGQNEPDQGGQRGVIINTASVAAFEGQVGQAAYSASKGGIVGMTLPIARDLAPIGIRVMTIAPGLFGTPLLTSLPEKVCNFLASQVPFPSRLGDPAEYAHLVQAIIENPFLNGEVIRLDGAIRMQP
UniProt Q99714, sequence (Q99714 whole entry, looked up): as above
In short: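 20 nM HADH2 + cpd, 15 min RT; add 1 mM NAD+/90 uM beta-hydroxybutyryl-CoA; kinetic fluorescence 360/450 nm, 4 min. Tris-HCl pH 9.0, 0.01% Tween-20.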
On the % scale 0 is the no-effect control and ±100 the full control effect; potency means the concentration at half of the fitted maximal effect; tags describe the fitted curve by direction and shape.

| Structure (SMILES) | Potency | activity change, negative = inhibition |
| --- | --- | --- |
| N#CCCN1CCN(C(=S)c2ccc(-c3ccc(Cl)cc3)o2)CC1 | inconclusive: 7.94 µM [inhibitor, full curve] |  |
| COCc1cc(=O)[nH]c(/N=C(\N)Nc2ccc(C)cc2)n1 | inconclusive: 5.01 µM [inhibitor, full curve] |  |
| CCCc1c(OCCCOc2ccc(OCC(=O)O)cc2)ccc(C(C)=O)c1O |  | inactive: 3.76% |
| Cc1ccc(-n2nc(C)c3c(-c4cccs4)c(C#N)c(N)nc32)cc1 | inconclusive: 39.8 µM [inhibitor, single point] |  |
| c1ccc(N2CCN(c3nc4cc5c(cc4s3)OCCO5)CC2)cc1 |  | inactive: 7.3% |
| CC1CN(c2oc(-c3ccco3)nc2S(=O)(=O)c2ccccc2)CC(C)O1 (stereo not drawn) |  | inactive: 2.76% |
| Cc1cc(C)c(C#N)c(SCC(=O)N2CCCCC2)n1 | inconclusive: 39.8 µM [inhibitor, single point] |  |
| C/C=C1\C(=O)C[C@@H]2[C@@H]3CCC4=CC(=O)CC[C@@]4(C)[C@H]3CC[C@@]12C | inconclusive: 0.316 µM [inhibitor, full curve] |  |
| CCCSc1nc2c(c(=O)[nH]c(=O)n2C)n1Cc1ccc(C)cc1 |  | inactive: -2.26% |
| O=C(CN1C(=O)c2ccccc2S1(=O)=O)N1CCc2ccccc2C1 |  | inactive: 3.29% |
| NC(N)=[N+]1CCc2ccccc2C1 | inconclusive: 6.31 µM [inhibitor, single point] |  |
| Cc1noc(C)c1-c1cncnc1NCc1cccnc1 | inconclusive: 12.6 µM [inhibitor, partial curve] |  |
| c1coc(CSCc2cn3cccnc3n2)c1 |  | inactive: 8.1% |
| O=C(CSc1ccccc1Cl)c1ccco1 | inconclusive: 39.8 µM [inhibitor, single point] |  |
| c1cncc(-c2csc(NCc3ccco3)n2)c1 | inconclusive: 39.8 µM [inhibitor, single point] |  |
| CC(C)OCCCn1c(-c2ccco2)nc2nc3ccccc3nc21 | active: 1.58 µM |  |
| CC[C@@H]1O[C@]2(C=C[C@@H]1C)C[C@H]1C[C@H](CC=C(C)[C@@H](O[C@@H]3C[C@H](OC)[C@H](O[C@@H]4C[C@H](OC)[C@H](O)[C@H](C)O4)[C@H](C)O3)[C@@H](C)C=CC=C3CO[C@@H]4[C@@H](O)C(C)=C[C@@H](C(=O)O1)[C@]34O)O2 |  | inactive: -4.59% [at 25.6 µM] |
| Cc1cc(NC(=O)CSc2nc3c([nH]c4ccccc43)c(=O)n2-c2cccc(C(F)(F)F)c2)no1 |  | inactive: -14.3% |
| CCn1cc(C(=O)NCCOC)c(=O)c2ccc(C)nc21 | inconclusive: 1.58 µM [inhibitor, single point] |  |
| O=C(OCCN1CCCCC1)c1c[nH]c2ccccc12 | inactive |  |
| Cc1cccc(C)c1NC(=O)C[N+](C)(C)C | inactive |  |
| c1cncc(CNc2ncnc3ccc(-c4cccnc4)cc23)c1 | active: 25.1 µM |  |
| COc1ccc(S(=O)(=O)Nc2ccc(O)c3ccccc23)cc1 | active: 1 µM |  |
| Cc1sc(NC(=O)CCCC(=O)O)c(C#N)c1C | inconclusive: 31.6 µM [inhibitor, single point] |  |
| CCCS(=O)(=O)c1nnnn1-c1cccc(OC)c1 | inconclusive: 1.58 µM [inhibitor, full curve] |  |

| Structure (SMILES) | Potency | activity change, negative = inhibition |
| --- | --- | --- |
| O=C(O)C1CCCN1c1ncnc2c1oc1ccccc12 (stereo not drawn) | inconclusive: 3.16 µM [inhibitor, single point] |  |
| COc1ccc(-n2c(N)c(C(=O)NCC3CCCO3)c3nc4ccccc4nc32)c(OC)c1 (stereo not drawn) | inconclusive: 31.6 µM [inhibitor, single point] |  |
| Cc1ccc(C2=C(Cl)C(=O)C(c3ccc(C)cc3)=C(Cl)C2=O)cc1 | active: 1.26 µM |  |
| CCN1CCC2(CC1)C(C#N)=C(N)Oc1c2sc2nc(C)cc(C)c12 | inconclusive: 39.8 µM [inhibitor, single point] |  |
| Cn1cccc1C(=O)NC(=O)COC(=O)Cc1coc2ccc3ccccc3c12 | inconclusive: 39.8 µM [inhibitor, single point] |  |
| c1ccc2c(c1)oc1c(N3CCN(Cc4ccc5c(c4)OCO5)CC3)ncnc12 | inconclusive: 31.6 µM [inhibitor, single point] |  |
| C=CCn1c(COc2ccc(F)cc2)nnc1SCC(=O)NC(=O)NCc1ccco1 |  | inactive: -0.444% |
| COc1cc(C(=O)OCC(=O)c2cc(C)n(C)c2C)cc(NC(=O)c2ccco2)c1OC | inconclusive: 31.6 µM [inhibitor, single point] |  |
| CCc1ccc(N2CSC3=C(C#N)C(c4cccs4)CC(=O)N3C2)cc1 (stereo not drawn) | inconclusive: 2 µM [inhibitor, full curve] |  |
| COc1ccc(-c2cc3ccc(OCc4nn[nH]n4)cc3oc2=O)cc1 | active: 3.16 µM |  |
| CCOC(=O)CSc1ccc2nnc(-c3cccs3)n2n1 | inconclusive: 31.6 µM [inhibitor, single point] |  |
| O=C(COc1ccc(Br)cc1)Nc1ccc(-c2nnc(-c3ccco3)o2)cc1 | inconclusive: 7.94 µM [inhibitor, single point] |  |
| CC1(C)Cc2c(C#N)c(N)sc(=S)c2CS1 | inconclusive: 0.501 µM [inhibitor, full curve] |  |
| Cc1ccccc1Cn1c2ccccc2c2cn[nH]c(=O)c21 | inconclusive: 5.01 µM [inhibitor, single point] |  |
| CCN1CCCC1CN(Cc1cc2c(C)cc(C)cc2[nH]c1=O)C(=O)NC1CCCCC1 (stereo not drawn) |  | inactive: 6.59% |
| Cc1cc(C)n2cc(CSc3ncccc3C(=O)O)nc2n1 | active: 31.6 µM |  |
| COc1cc(C(=O)Nc2ccc(-c3nc4cc(C)ccc4o3)c(O)c2)cc(OC)c1OC | active: 25.1 µM |  |
| O=C(Nc1ccc2c(c1)OCCO2)c1c(F)c(F)c(F)c(F)c1F |  | inactive: -2.87% |
| Cc1cnc(CNc2cc(-c3ccccc3CN(C)C)ncn2)cn1 | inconclusive: 7.94 µM [inhibitor, partial curve] |  |
| CCCCCCn1c(SCC(=O)c2ccccc2)nc2c1c(=O)[nH]c(=O)n2C | inconclusive: 7.94 µM [inhibitor, single point] |  |
| Cn1c(=O)c2cc(S(=O)(=O)NC(C(=O)NCc3cccnc3)c3ccccc3)ccc2n(C)c1=O (stereo not drawn) |  | inactive: 15.3% |
| COC(=O)c1[nH]c2ccccc2c1NC(=O)CN1CCN(c2cccc(OC)c2)C(C)C1 (stereo not drawn) |  | inactive: -0.926% |
| CCn1c(-c2cccc(Br)c2)n[nH]c1=S | inconclusive: 20 µM [inhibitor, partial curve] |  |
| O=c1oc2ccccc2cc1-c1nc2ccccc2o1 | active: 7.94 µM |  |
| O=C(COc1ccccc1)Nc1ccc2c(c1)nc1n2CCSC1 | inconclusive: 39.8 µM [inhibitor, single point] |  |

| Structure (SMILES) | Potency | activity change, negative = inhibition |
| --- | --- | --- |
| CC1(C)Cc2nc3oc4c(N(CCO)Cc5ccccc5)ncnc4c3cc2CO1 | inconclusive: 6.31 µM [inhibitor, single point] |  |
| c1ccc2[nH]c(CSc3nc4ccccc4o3)nc2c1 | inconclusive: 31.6 µM [inhibitor, single point] |  |
| O=C(O)Cc1[nH]cnc1C(=O)O | inconclusive: 0.0316 µM [inhibitor, full curve, poor fit] |  |
| Cc1ccsc1C1C2=C(CCCC2=O)Nc2ncnn21 (stereo not drawn) |  | inactive: -10.1% |
| Cc1nn2c(N3CCN(c4ccccn4)CC3)cc(C(C)C)nc2c1-c1ccccc1 | inconclusive: 39.8 µM [inhibitor, single point] |  |
| O=CN(Cc1ccco1)C1(C(=O)NC2CCCCC2)CCCCC1 |  | inactive: 3.82% |
| Cn1c(=O)c2c(nc(CN3CCN(c4ccc(F)cc4)CC3)n2CCN2CCOCC2)n(C)c1=O | inconclusive: 3.98 µM [inhibitor, single point] |  |
| CCOC(=O)C1(Cc2ccc(O)cc2)NC(c2ccco2)C2C(=O)N(c3ccccc3F)C(=O)C21 (stereo not drawn) |  | inactive: -3.25% |
| Nc1c(S(=O)(=O)c2cccs2)c2nc3ccccc3nc2n1Cc1ccc2c(c1)OCO2 | inconclusive: 20 µM [inhibitor, partial curve] |  |
| COc1ccc(CCn2c(N)c(C(=O)NCc3ccco3)c3nc4ccccc4nc32)cc1OC | inconclusive: 31.6 µM [inhibitor, single point] |  |
| CCn1c(SCC(=O)Nc2ccc3c(c2)c2ccccc2n3CC)nnc1-c1ccco1 | active: 12.6 µM |  |
| O=C1C(O)=C(O)C(=O)C(O)=C1O | inconclusive: 12.6 µM [inhibitor, partial curve] |  |
| CC(=O)/C(=C\c1ccccc1F)C(=O)c1ccccc1 |  | inactive: -5.35% [at 11.4 µM] |
| CCc1ccc(OCC(=O)OC2CCS(=O)(=O)C2)cc1 (stereo not drawn) |  | inactive: -16.9% |
| CCN1CCCC1Cn1c(-c2ccccc2)nc2c(NCc3ccccc3)nc(C)nc21 (stereo not drawn) | inconclusive: 39.8 µM [inhibitor, single point] |  |
| Cn1cccc1C(=S)N=P(C1CCCCC1)(N1CCOCC1)N1CCOCC1 | inconclusive: 20 µM [inhibitor, single point] |  |
| O=C1CC(Nc2ccc(N3CCOCC3)cc2)C(=O)N1c1ccccc1F (stereo not drawn) | inconclusive: 31.6 µM [inhibitor, single point] |  |
| Cc1ccc2c(c1C)NC(C)CC2C (stereo not drawn) | inconclusive: 39.8 µM [inhibitor, single point] |  |
| Cc1ccc(C2CC(c3ccc(F)cc3)Nc3nc(N)nn32)cc1 (stereo not drawn) |  | inactive: -3.8% |
| COc1cc(OC)c2c(c1Cl)O[C@@]1(C2=O)[C@H](C)CC(=O)C[C@@H]1OC |  | inactive: -12.2% [at 25.6 µM] |
| COc1ccc(OC)c(NC(=O)c2nnn(CCc3ccccc3)c2N)c1 | active: 25.1 µM |  |
| CCn1c(CNC(=O)c2ccc(OC)c(OC)c2)nnc1SCC(=O)c1ccc(OC)cc1 | inconclusive: 25.1 µM [inhibitor, partial curve] |  |
| c1ccc(-n2nnc3c(N4CCOCC4)ncnc32)cc1 | inconclusive: 31.6 µM [inhibitor, single point] |  |

From PubChem BioAssay AID886 (National Center for Advancing Translational Sciences (NCATS), 2007)
